# In all, about 52,000 compounds went through this assay and about 4,300 (8.3%) were called active. No stated cut-off is given here; in the data, active means survival mostly below about 52% (no sharp cut-off); inactive means mostly above about 56%. The list shows a part of the results.
# Tested on: DeltatarO mutant
# Experiment: growth inhibition of S. aureus wild type versus tarO mutant, primary screen, teichoic acid synthesis inhibitors, RN4220, OD600 (AID 463173)
# Details: OD600, 18 h, active compounds read low, screened at 18.75 µg/mL (by protocol)
row,Structure (SMILES),survival
1,Cc1oc(-c2cccc(Cl)c2)nc1CSc1nnc(C)n2c1cc1occc12,inactive: 79%
2,c1ccc(-n2nnnc2N2CCCC2)cc1,inactive: 78%
3,Cc1ccccc1OCc1nnc(SCc2cc(=O)c3ccc(C)c(C)c3[nH]2)n1C,inactive: 72%
4,CC1CCCCN1C(=O)Cn1cc(C#N)c2ccccc21 (stereo not given),inactive: 84%
5,O=S(=O)(c1ccccc1)c1cccc(S(=O)(=O)N2CCCC2)c1,inactive: 86%
6,COc1ccccc1-c1nc(S(=O)(=O)c2ccccc2)c(N2CCC(C)CC2)o1,active: 19%
7,Cc1ccc(-c2cc3c(n2-c2ccc(F)cc2)CC(C)(C)CC3=O)cc1,inactive: 98%
8,CN(C(=O)c1c2c(nc3ccccc13)C(=O)N(C1CCCCC1)C2)c1ccc(F)cc1,active: 0%
9,COC(=O)c1c(SCC(=O)Nc2cccc(Cl)c2C)[nH]c2ccccc2c1=O,inactive: 90%
10,Cc1ccc(S(=O)(=O)NCCc2csc3nc(-c4ccccc4F)nn23)cc1C,inactive: 75%
11,OCC#Cc1cnc2ccccc2c1,inactive: 77%
12,CC(C)(C)OC(=O)N1CCC(c2c(C(=O)N3CCC(c4ccccc4)C3)cnn2-c2ccc(Cl)cc2)CC1 (stereo not given),inactive: 99%
13,COc1cccc(-c2nc(SCc3ccc(C)cc3)n3[nH]c(=O)cc3n2)c1,inactive: 131%
14,CC(NC(=O)C1CCN(S(=O)(=O)c2ccc3c(c2)oc(=O)n3C)CC1)c1ccccc1 (stereo not given),inactive: 104%
15,O=[N+]([O-])c1ccc(S(=O)(=O)N2CCn3cccc3C2c2ccccc2F)cc1 (stereo not given),inactive: 113%
16,CCOC(=O)c1cccc(NC(=O)CSc2nc3cc4ccccc4cc3[nH]2)c1,active: 36%
17,CC(C)c1cnc2c(c1SCC(=O)O)c(=O)n(C)c(=O)n2C,inactive: 71%
18,COc1ccccc1-c1cc(C(=O)NCCc2ccccc2)no1,inactive: 57%
19,CCC(C(=O)NCc1cccc(Br)c1)n1nc(C)c2c(C)n(-c3ccccc3)nc2c1=O (stereo not given),inactive: 107%
20,CC(=O)Nc1ccc(NC(=O)c2cnn(-c3ccccc3)c2C2CCN(C(=O)OC(C)(C)C)CC2)cc1,inactive: 75%
21,O=S(=O)(Nc1cccc(F)c1)c1ccc2[nH]c3c(c2c1)CCCCC3,inactive: 81%
22,COc1ccccc1CCNC(=O)C(=O)NCC(c1ccco1)S(=O)(=O)c1ccccc1 (stereo not given),inactive: 77%
23,CC(C)(C)NC(=O)CN1CCC(n2nnc3cc(F)ccc32)CC1,inactive: 93%
24,Cc1cccc(NC(=O)CSc2nc3ccccc3c3nc(CCc4c(C)n[nH]c4C)nn23)c1,inactive: 83%
25,COc1ccc(Nc2nc3ccccc3nc2NS(=O)(=O)c2ccc(Cl)cc2)cc1OC,active: 29%
